{"source": "paper PMC12136788", "binders": {"B1": {"name": "chr2:151248206:151248307:-|3pUTR|ENSG00000184898|msi1|total|mutant (ssRNA)", "RNA": "GGGAGUUCUACAGUCCGACGAUCUUUUUUUAAAGCAAAGAUUAAAUUCCCAUGUAAAACCUUCCUCCCUAUACAAAAAAGAACCGCAGCAUUUUUAUCUUCAAUGACAAAGAAUUGAGUCCAAGAAAAUACUGUAUAAACCUUCAACAGAGGAUUGAGCAUCA"}, "B2": {"name": "chr14:70725571:70725672:-|3pUTR|ENSG00000006432|unk|FALSE|unique (ssRNA)", "RNA": "GGGAGUUCUACAGUCCGACGAUCUAUUGUUAGAAACGCAUUACCAAAUGCAUCUCUUCUGUCGGAUCAGCGUAUUCCUAGAUUAGGAAUUCAAAUUAAUGAAAAUUCACAUAUGAAAGGAAAAUCCAUUGCUAUUUCUGGAGACAACAGAGGAUUGAGCAUCA"}, "B3": {"name": "chr1:229660051:229660152:+|3pUTR|ENSG00000135763|msi1|FALSE|bound_elsewhere (ssRNA)", "RNA": "GGGAGUUCUACAGUCCGACGAUCCUCAUUCAUAGUCUCAGUUACCCAGAUAACCUCGGUUGUCACCUUGGAGUAUCUUGUUGUAGUCCCUUUACUAUGUGUAUGUAUAUAGAUGUGCAUAUAAAUAUAUAUAGUAGCUAAAUUCAACAGAGGAUUGAGCAUCA"}, "B4": {"name": "chr15:52550141:52550321:-|3pUTR|ENSG00000128989|msi1|FALSE|unique (ssRNA)", "RNA": "GGGAGUUCUACAGUCCGACGAUCAGAUGUCACUUUAGUAAAAUACCAAUUUAGUUUUACUUGUGGCUUAUCUAGUUAGAACUUAGCAGACUUUACUGGGACAAGUUUACUGCUCUUGUAGGAGCUCCUCUCACAAGUAGUUGUCAACAGAGGAUUGAGCAUCA"}, "B5": {"name": "chr6:96891104:96891324:-|CDS|ENSG00000123545|unk|FALSE|unique (ssRNA)", "RNA": "GGGAGUUCUACAGUCCGACGAUCUAAUCAUAAGCUUUUCCCAGAAACCUGGACUGCUGAGAAAAUAAUGCAGGAAUACCAGUUAGAACAGAAAGAUGUGAAUUCUCUUCUUAAAUAUUUUGUUACUUUUGAAGUCGAAAUCUUCAACAGAGGAUUGAGCAUCA"}, "B6": {"name": "ENSG00000198589:be:win_6601|CDS|ENSG00000198589|bound_else_gene|NA|bound_elsewhere_windowed (ssRNA)", "RNA": "GGGAGUUCUACAGUCCGACGAUCACCCAGCGAUGGCAACACAGAGAGAUAUCUAAUUUUGAGUACUUGAUGUUUCUCAACACGAUAGCAGGACGGAGUUAUAAUGACUUAAAUCAGUAUCCAGUGUUUCCUUGGGUCAUCACUCAACAGAGGAUUGAGCAUCA"}, "B7": {"name": "chr1:93866283:93869944:-|three_prime_utr|ENSG00000067334|control|control|control (ssRNA)", "RNA": "GGGAGUUCUACAGUCCGACGAUCUUUAUUUACUUAUUAAAGACGUUUGGAAAACUAACACCAUCAUCUAAAUUAAUUUACCAUAGACUGGCCCUGUUCAUACAGGAAUUUGUAUUUGGAAAAAGUUGAUUUGAGAAUCGAUUACAACAGAGGAUUGAGCAUCA"}, "B8": {"name": "chr6:52279506:52279615:-|CDS|ENSG00000112118|unk|total|mutant (ssRNA)", "RNA": "GGGAGUUCUACAGUCCGACGAUCUGAGUGUGGCAUUUUUAAGACAGGACGGAGAUCACUCUGUCCCUCUGUGUGCCUUUUUCCCGGAUGAGGAGAACAAUCCCCUUGAGACAGAAUAUGGCCUUUCUGUCUACAAGGAUCACCCAACAGAGGAUUGAGCAUCA"}, "B9": {"name": "chr8:133458587:133458688:-|3pUTR|ENSG00000008513|msi1|FALSE|unique (ssRNA)", "RNA": "GGGAGUUCUACAGUCCGACGAUCAUGAAACAAAAGCCCUUACUUGGGAAAAGGGACCCCCACCAGCGGCCCUGCUUGCUCCGUAGCUGGGAACAUCUUUUCUGGUUUCCUGAGCCAGCACCUGAAUUGCAACGAAGCUCUGAGCAACAGAGGAUUGAGCAUCA"}, "B10": {"name": "chr10:62807900:62808002:+|3pUTR|ENSG00000181915|unk|total|mutant (ssRNA)", "RNA": "GGGAGUUCUACAGUCCGACGAUCCAAAAAGUUGAUCCGCUUACCAAGAUUAUUAACCGCAAUGUAUGUGUUAUAAUACAACUCCGUACAUUAAAGCUACGAAAACUCAUCCUGGCUGCCGGACCGUAAUAAAGGAAGAAUUAUCAACAGAGGAUUGAGCAUCA"}, "B11": {"name": "chr17:64498535:64498649:-|3pUTR|ENSG00000108654|unk|FALSE|unique (ssRNA)", "RNA": "GGGAGUUCUACAGUCCGACGAUCUUAAACUGAGGCUUUAAUUGAUGUUAAUGCCUUAUGUCAAAUGUAAAGUUAGAAUUUGCUAGGGCUGGGAUAGGGAGUGAUAUUUCUAGGACUUAGACAUUGAAAACUAAUUCAGCCUGUCAACAGAGGAUUGAGCAUCA"}, "B12": {"name": "chr10:5457295:5457390:+|3pUTR|ENSG00000173848|msi1_unk|FALSE|overlapping (ssRNA)", "RNA": "GGGAGUUCUACAGUCCGACGAUCUCUGGAUUCAUCAUGGCUUUCUAAUACCAAUUGUAAUAUUUACAAUAUUCACCAAAACUUAGAAUUUUGCAAAUGCUGGAAUUCUGCCAGUGUUUCUUUGCUAAGCCUUGCAUGCAAAAUCAACAGAGGAUUGAGCAUCA"}, "B13": {"name": "ENSG00000198589:be:win_6801|CDS|ENSG00000198589|bound_else_gene|NA|bound_elsewhere_windowed (ssRNA)", "RNA": "GGGAGUUCUACAGUCCGACGAUCAAAAAGAGCAGCAUUCUUCGCUGAGCGUUAUGAAUCAUGGGAAGAUGAUCAAGUUCCAAAGUUUCACUAUGGUACUCAUUACUCAACUGCAAGUUUUGUUCUUGCAUGGCUGCUAAGAAUCAACAGAGGAUUGAGCAUCA"}, "B14": {"name": "chr15:57961136:57961294:-|CDS|ENSG00000128918|control|control|control (ssRNA)", "RNA": "GGGAGUUCUACAGUCCGACGAUCGAGAUUUAAGACGAUGGAUGAAGUUAUCGAAAGAGCCAAUAACUCAGACUUUGGACUCGUAGCAGCUGUCUUUACUAAUGACAUCAACAAGGCCCUCACAGUGUCUUCUGCAAUGCAAGCCAACAGAGGAUUGAGCAUCA"}, "B15": {"name": "chr5:138349049:138349150:+|3pUTR|ENSG00000120709|msi1|FALSE|unique (ssRNA)", "RNA": "GGGAGUUCUACAGUCCGACGAUCGAGAAGGUCUACAGUUAUCAUUAUUUUAAUUCCAUUACUUUCAGUCUGGAAAACUAAGCUAGUCAGAACUGUCAUCUUGCUUCCCAAUCUAAGAACCUGUGGCCCUGGAACACUUUUCAACAACAGAGGAUUGAGCAUCA"}, "B16": {"name": "chr6:49492913:49492980:+|3pUTR|ENSG00000031691|msi1_unk|total|mutant (ssRNA)", "RNA": "GGGAGUUCUACAGUCCGACGAUCUGUUGAAUAUUUUCUACUGUCAUCAAAACAUAUUCCCAAAAAGUAUUAAAAAGGAACCUCCGCACAUUUAUUUUAUUAAAACAAGAAAACCCAAAAUAUAUAAACCUUUUCUUAUUAUGACAACAGAGGAUUGAGCAUCA"}, "B17": {"name": "ENSG00000152661:stop:overlap|stop_codon|ENSG00000152661|stop_codon|NA|stop_codon (ssRNA)", "RNA": "GGGAGUUCUACAGUCCGACGAUCCUUCAAGCAGAGCCAGCAGUCGUGCCAGCAGCAGACCUCGGCCUGAUGACCUGGAGAUCUAGAUACAGGCUUGAAAGCAUCAAGAUUCCACUCAAUUGUGGAGAAGAAAAAAGGUGCUGUCAACAGAGGAUUGAGCAUCA"}, "B18": {"name": "chr22:31279490:31279591:+|3pUTR|ENSG00000182541|msi1|total|mutant (ssRNA)", "RNA": "GGGAGUUCUACAGUCCGACGAUCAGCAGCUUGGGCUGGGAAGAGGUGGUGGCAGAGUCUCAAAGCUGAGAUGCUGAGAGAGACCGCUCCCUGAGCUGGGCCAUCUGACUUCUACCUCCCAUGUUUGCUCUCCCAACUCAUCCGCAACAGAGGAUUGAGCAUCA"}, "B19": {"name": "chr1:77949188:77949289:-|CDS|ENSG00000162613|unk|FALSE|unique (ssRNA)", "RNA": "GGGAGUUCUACAGUCCGACGAUCUUCAAAGGUCAGGCAGUUCCUGCUCCGACUGGGGCUCCUCCAGGUGGUCAGCCAGAUUAUAGUGCAGCCUGGGCUGAGUAUUAUAGACAACAAGCAGCCUAUUAUGCCCAGACAAGUCCCCAACAGAGGAUUGAGCAUCA"}, "B20": {"name": "chr9:77717828:77717929:-|3pUTR|ENSG00000156052|unk|total|mutant (ssRNA)", "RNA": "GGGAGUUCUACAGUCCGACGAUCGUGCCUCAUAUCUGAAACAAAGGGAAAUAACACACCCAUUCAAAAGUAAAUAAAUCUCCCCGAAGUUUUUGUUUUUAACAUUUCCAUAUAAAGAGCUCUGUUGAAUGUCAUGAACCGACUCAACAGAGGAUUGAGCAUCA"}, "B21": {"name": "chr15:76949589:76949706:+|3pUTR|ENSG00000117906|msi1_unk|FALSE|overlapping (ssRNA)", "RNA": "GGGAGUUCUACAGUCCGACGAUCAUAAAUUUUUGUUUUUGUUCUAAGUAGAUUUAAUUUGGGAACUGACAGGACAAUGUUUUUAGGUUUAGCAUUUUGUUUAAAAACCUUUAAAGAAACCUUUAGAAGGACUUAGACCUCACACAACAGAGGAUUGAGCAUCA"}, "B22": {"name": "chr12:121847077:121847190:-|CDS|ENSG00000158104|unk|total|mutant (ssRNA)", "RNA": "GGGAGUUCUACAGUCCGACGAUCAAAAACCUGCAGUUCCACCGCUUCUGGUCCGUGGAUGACACGCAGGUGCACACGGAAUACCGCUCUCUGCGAUCCAUUGUGGUGGCCAACUAUGAAGAGUCCAUCAAGAUGCCCAUCAAUCAACAGAGGAUUGAGCAUCA"}}, "note": "The other results are listed elsewhere or left out.", "data": [{"target": "MSI1 full-length (mouse, UniProt Q61474 1-362)", "sequence (Q61474 whole entry)": "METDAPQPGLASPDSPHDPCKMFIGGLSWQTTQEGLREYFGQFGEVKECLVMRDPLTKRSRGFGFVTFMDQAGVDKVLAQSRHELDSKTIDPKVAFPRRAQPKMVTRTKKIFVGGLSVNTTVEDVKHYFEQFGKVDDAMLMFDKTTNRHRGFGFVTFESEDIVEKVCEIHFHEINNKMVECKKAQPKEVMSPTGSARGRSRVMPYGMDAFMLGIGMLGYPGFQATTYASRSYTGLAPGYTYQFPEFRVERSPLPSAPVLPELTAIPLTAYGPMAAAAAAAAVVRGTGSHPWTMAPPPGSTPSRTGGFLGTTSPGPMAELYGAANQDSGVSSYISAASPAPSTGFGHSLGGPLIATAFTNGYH", "assay": "nsRBNS (natural sequence RNA bind-n-seq); RBNS binding buffer (assumed for nsRBNS): 25 mM Tris pH 7.5, 150 mM KCl, 3 mM MgCl2, 0.01% Triton X-100, 500 ug/ml BSA, 20 U/ml SUPERase-In, 4 C; UNK is unkempt and MSI1 is Musashi-1; names of the RNAs are library labels; protein concentration not given here; high values mean tight binding", "units": {"binding signal": "enrichment R"}, "values": [{"binder": "B1", "binding signal": 0.434}, {"binder": "B2", "binding signal": 1.04}, {"binder": "B3", "binding signal": 3.57}, {"binder": "B4", "binding signal": 3.47}, {"binder": "B5", "binding signal": 0.691}, {"binder": "B6", "binding signal": 0.341}, {"binder": "B7", "binding signal": 0.451}, {"binder": "B8", "binding signal": 0.235}, {"binder": "B9", "binding signal": 0.322}, {"binder": "B10", "binding signal": 0.286}, {"binder": "B11", "binding signal": 0.784}, {"binder": "B12", "binding signal": 0.302}, {"binder": "B13", "binding signal": 0.144}, {"binder": "B14", "binding signal": 0.377}, {"binder": "B15", "binding signal": 0.392}, {"binder": "B16", "binding signal": 1.81}, {"binder": "B17", "binding signal": 0.49}, {"binder": "B18", "binding signal": 0.431}, {"binder": "B19", "binding signal": 0.918}, {"binder": "B20", "binding signal": 0.447}, {"binder": "B21", "binding signal": 7.37}, {"binder": "B22", "binding signal": 0.309}]}]}
